The results in this text go back to PMC4336329 (PLoS ONE, 2015).

Each structure is given as a SMILES string. About 14,000 (4.5%) of roughly 310,000 compounds showed an effect of 50% or more. The effect is printed as a negative number. The list shows a part of the results.
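Further: peak tail current of the secondary pulse compared with the same well before compound.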

For this test, the target named is human ether-à-go-go-related gene (hERG) potassium channel (human, UniProt Q12809). The test can be described thus: primary screen, population patch clamp on CHO cells stably expressing hERG.
Chain of human ether-à-go-go-related gene (hERG) potassium channel (Q12809 whole entry, looked up): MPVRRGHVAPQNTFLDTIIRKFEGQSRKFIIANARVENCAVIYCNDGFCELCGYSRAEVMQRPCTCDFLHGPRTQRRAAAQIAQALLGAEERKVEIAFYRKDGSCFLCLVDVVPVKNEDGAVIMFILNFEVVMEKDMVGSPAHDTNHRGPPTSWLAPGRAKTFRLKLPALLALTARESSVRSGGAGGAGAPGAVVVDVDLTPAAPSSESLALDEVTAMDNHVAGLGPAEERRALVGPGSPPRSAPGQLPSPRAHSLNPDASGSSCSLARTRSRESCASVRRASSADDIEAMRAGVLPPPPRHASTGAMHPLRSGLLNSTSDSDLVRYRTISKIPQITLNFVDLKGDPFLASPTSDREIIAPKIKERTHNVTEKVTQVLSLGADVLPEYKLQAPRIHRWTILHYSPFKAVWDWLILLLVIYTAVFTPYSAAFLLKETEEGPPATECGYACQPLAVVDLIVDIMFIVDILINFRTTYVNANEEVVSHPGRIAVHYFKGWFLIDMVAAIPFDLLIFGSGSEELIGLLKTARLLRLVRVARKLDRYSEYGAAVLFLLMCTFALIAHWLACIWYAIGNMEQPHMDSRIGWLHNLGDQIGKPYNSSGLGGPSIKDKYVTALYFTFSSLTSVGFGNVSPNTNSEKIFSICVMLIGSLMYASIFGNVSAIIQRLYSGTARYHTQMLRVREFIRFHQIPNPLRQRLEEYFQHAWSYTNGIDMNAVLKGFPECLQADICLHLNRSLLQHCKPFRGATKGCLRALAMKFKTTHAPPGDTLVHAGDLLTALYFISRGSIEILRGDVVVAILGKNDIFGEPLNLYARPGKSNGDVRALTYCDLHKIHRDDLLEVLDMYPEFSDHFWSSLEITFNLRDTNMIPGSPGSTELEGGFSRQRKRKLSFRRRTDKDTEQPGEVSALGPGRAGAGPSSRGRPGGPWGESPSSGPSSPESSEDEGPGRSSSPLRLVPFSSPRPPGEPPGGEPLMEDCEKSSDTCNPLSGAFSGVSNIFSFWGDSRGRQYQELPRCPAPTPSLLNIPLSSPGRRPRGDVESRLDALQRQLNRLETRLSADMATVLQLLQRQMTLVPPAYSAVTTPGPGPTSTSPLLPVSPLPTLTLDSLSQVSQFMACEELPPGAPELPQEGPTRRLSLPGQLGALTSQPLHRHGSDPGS
As for `CCCc1cc(=O)oc2c3c(cc(OCC(=O)NCc4ccccn4)c12)OC(C)(C)CC3`, the “hERG current change (%, negative = inhibition) at 10uM” value is listed as -22.7%.
The same measure for `CC(C)(C)c1ccc(S(=O)(=O)N2CCC(NC(=O)c3ccco3)CC2)cc1`: 18.3%; for `CC1(c2ccc([N+](=O)[O-])cc2)NC(=O)N(CC(=O)Nc2ccc(N3CCCCC3)cc2)C1=O` (stereo not drawn): 9.59%.
`C=CCn1c(C2CCCCC2)n[nH]c1=S`: the “hERG current change (%, negative = inhibition) at 10uM” value amounted to 13.1%.
As for `Cc1ccc(C(=O)Nc2cccc(C(=O)N/N=C/c3ccc(O)cc3)c2)cc1`, the “hERG current change (%, negative = inhibition) at 10uM” value is given as 23.9%.
The same measure for `O=C(Nc1ccccc1)Nc1cccc(NC(=O)Nc2ccccc2)c1F`: 19.1%.
The same measure for `COc1ccc(/C=C/C(=O)NC(=S)Nc2ccccc2C(=O)NC2CCCCC2)cc1`: 1.07%.
In the case of `Cc1nc2cc(-n3ccc(=O)cc3)ccc2n1-c1ccccc1`, the “hERG current change (%, negative = inhibition) at 10uM” value is reported as -13.9%.
Consider `CC(=O)NC1C2CN3CCN(C2)CC1(Cc1ccccc1)C3` (stereo not drawn), for which the “hERG current change (%, negative = inhibition) at 10uM” value is recorded as 9.26%.
Next, `CCN(CC(=O)Nc1ccccc1OC)C(=O)c1ccc(N(C)S(=O)(=O)c2ccc(C)cc2)cc1`: -62.2%; `CN(c1ccccc1)S(=O)(=O)c1cccc(NC(=O)CSc2nnc(N)s2)c1`: 13.6%; `O=C(COC(=O)Cn1cnc2ccccc21)Nc1ccc2c(c1)OCCO2`: 13.4%.
Next, `CN1CCN(c2ccc(S(=O)(=O)N3CCCCC3)cc2N)CC1.Cl`: -0.152%; `Cc1cc(C(=O)COc2cccnc2[N+](=O)[O-])c(C)n1-c1ccccc1F`: -2.02%; `CCOc1ccc(CCNC(=O)COC(=O)c2nn(C)c(=O)c3ccccc23)cc1OCC`: -12.3%.
Regarding `Br.COc1cc(NS(=O)(=O)c2ccc(Nc3nc(-c4ccccn4)cs3)cc2)nc(OC)n1`, the “hERG current change (%, negative = inhibition) at 10uM” value is given as -0.484%.
The same measure for `N/C(CSc1ncccc1C(F)(F)F)=N\O`: 16.4%; for `CCOc1ccc(N(Cc2ccccc2F)C2=NC3CS(=O)(=O)CC3S2)cc1` (stereo not drawn): -15.3%.
The same measure for `CCOc1ccc(NC(=O)C(C)Oc2ccc(C#N)cc2)cc1S(=O)(=O)N1CCCC1` (stereo not drawn): -62.1%; for `COc1cccc(C(=O)NCc2ccc3c(c2)cc(C)n3C)c1`: 17%; for `Cc1ccc(NC2c3ncccc3C(=O)N2c2ccccc2C)cc1C` (stereo not drawn): 11%.
On to `COc1ccc(S(=O)(=O)N2CCC(n3cnc4ccccc43)CC2)cc1`, for which the “hERG current change (%, negative = inhibition) at 10uM” value is reported as -64.9%.
The same measure for `Cc1ccc(C)c(NC(=S)NCCc2cnc[nH]2)c1`: 8.43%.
Turning to `Cc1nc2c(C(=O)NCc3ccc4c(c3)OCO4)cnn2c(C)c1Cc1ccc(F)cc1Cl`, the “hERG current change (%, negative = inhibition) at 10uM” value is recorded as -22.3%.
The same measure for `NC(=O)C1CCN(C(=O)CCNS(=O)(=O)c2ccccc2F)CC1`: 9.26%; for `Cc1csc(SCC(=O)NC(=O)NC(C)(C)C)n1`: 5.75%.
Take `CC(C)(C)c1ccc(-c2noc(C(=O)NN)n2)cc1`: the “hERG current change (%, negative = inhibition) at 10uM” value was determined as 19.1%.
The same measure for `CC1=NN(C(=O)COc2ccc(C)c(C)c2)C(O)(c2ccc(Cl)cc2)C1` (stereo not drawn): -3.96%; for `C/C(CC(=O)Nc1ccccn1)=N\NC(=O)c1ccc2ccccc2c1`: 4.85%; for `CCOc1ccc(S(=O)(=O)NCCCl)cc1`: 9.89%.
Next, `O=C(Nc1ccccn1)c1ccc2ccccc2n1`: -4.94%; `O=C1NC(=O)C(C(CC(=O)c2ccccc2)c2ccccc2)C(=O)N1` (stereo not drawn): 30.6%.
The same measure for `CN(C)C(=O)OCc1n(C)cc[n+]1C.Cc1ccc(S(=O)(=O)[O-])cc1`: 11.5%; for `CCCSCCCNC(=O)CN1C(=O)COc2ccc(S(=O)(=O)N3CCCC3)cc21`: 2.87%; for `Cc1cc(NC(=O)CSc2nnc(-c3cccnc3)n2N)no1`: -0.572%.
In the case of `Cc1ccc(-c2nn(-c3ccccc3)cc2CN(Cc2ccccc2)C(=O)CCC(=O)O)o1`, the “hERG current change (%, negative = inhibition) at 10uM” value came to 0.911%.
The same measure for `COc1ccc(CCNc2nc3ccc(C)cc3n3cnnc23)cc1OC`: 10.6%; for `O=C(Nc1ncc2c(n1)-c1ccccc1CC2)c1cccc(Cl)c1`: -7.54%.
Next, `CC(C)(C)NC(=O)CSc1nnc(-c2ccncc2)o1`: 1.41%; `NC(=O)CSc1nnc(COc2cccc3ccccc23)o1`: -7.72%.
Next, `O=C(CCCc1c[nH]c2ccccc12)N1CCN(S(=O)(=O)c2cccs2)CC1`: -13.6%.
As for `Cc1ccccc1OCC(O)CN(CCO)Cc1ccccc1.Cl` (stereo not drawn), the “hERG current change (%, negative = inhibition) at 10uM” value is recorded as -22.5%.
Next, `CC(C)Nc1ncnc2ccc(Br)cc12`: 4.91%; `Cc1cc(C(=O)N/N=C/c2cc(Br)ccc2OC(=O)c2ccc(Br)cc2)n[nH]1`: -1.42%; `Cc1[nH]c(=S)n(CC2CCCO2)c1C` (stereo not drawn): -8.2%.
Next, `CC(=O)N/C(=C\c1ccccc1)C(=O)OCC(=O)N(CC(C)C)c1c(N)n(Cc2ccccc2)c(=O)[nH]c1=O`: 6.75%.
The same measure for `CCc1c(C)c(C#N)c2[nH]c3ccccc3n2c1=S`: 5.02%; for `COc1ccc(CCNC(=O)c2c(O)c3c([nH]c2=O)CCCC3)cc1OC`: 2.12%.
Turning to `CCNc1oc(-c2ccc(OC)cc2)nc1S(=O)(=O)c1ccc(Br)cc1`, the “hERG current change (%, negative = inhibition) at 10uM” value is on record as -17.3%.
Regarding `CCOC(=O)CCn1cc(F)c(=O)n(Cc2ccccc2)c1=O`, the “hERG current change (%, negative = inhibition) at 10uM” value was found to be 17%.
The same measure for `Cc1ccc(NC(=O)N/C=C/c2ccccc2)cc1`: 0.0712%.
Next, `COc1ccc(NC(=O)Nc2ccc(Br)cn2)cc1`: 14.8%.
Next, `Cc1c(NC(C)c2ccccc2O)c(=O)n(-c2ccccc2)n1C` (stereo not drawn): 10.3%; `COc1ccc(Nc2cc(Nc3ccc(OC)cc3)ncn2)cc1`: 8.68%; `Cc1nn(-c2ccccc2)c(C)c1Cc1ccc(O)cc1`: 8.03%.
Consider `Cn1c(=O)c2c(nc(CN3CCN(C(c4ccccc4)c4ccccc4)CC3)n2CCCO)n(C)c1=O`, for which the “hERG current change (%, negative = inhibition) at 10uM” value was -30.6%.
Next, `COc1ccc(CCNc2ccc(S(N)(=O)=O)cn2)cc1`: 16.8%; `CC1(C)OC(c2ccccc2)=C/C(=C/C=C2C(=O)NC(=S)NC2=O)O1`: -19.5%.
The same measure for `COCCNC(=S)N1CCN(C/C=C/c2ccccc2)CC1`: 4.83%; for `O=C(CSc1nnc(-c2cccs2)o1)N1CCCCC1`: 2.99%; for `CCOc1ccc(C2C(C(=O)OC)=CN(CCOC)C=C2C(=O)OC)cc1`: -14.6%.
Next, `Cc1cccc(C)c1OCc1cc(C(=O)NCC2CC2)no1`: 7.3%.
With `COc1ccc(NC(=O)CCCN2C(=O)C3C4C=CC(C4)C3C2=O)c(OC)c1` (stereo not drawn), the “hERG current change (%, negative = inhibition) at 10uM” value was -2.63%.
The same measure for `CCOc1cc(/C=N/NC(=O)c2cc3c(ccc4ccccc43)o2)ccc1O`: 1.28%; for `CCC(O)c1cc2c(cc1NC(=O)c1cccs1)OCCO2` (stereo not drawn): 7.08%; for `Cc1ccccc1C(=O)Nc1cccc(C(=O)Nc2ccccc2C(=O)O)c1`: 16.8%.
Next, `CCc1ccc(CNC(=O)Cc2ccc(NC(=O)C3=C(C)OCCS3)cc2)cc1`: 16.8%; `Cc1nnc(CN(C)C(=O)c2cc(COc3ccc(F)cc3Cl)on2)o1`: -1.05%.
The same measure for `Cc1c(C)c2c(OCC(=O)NCc3ccco3)cc3c(c2oc1=O)CCC(C)(C)O3`: 8.18%; for `Cn1c(SCc2ccccc2)nc(N)c(N=O)c1=O`: -17.3%; for `O=C(CSc1n[nH]c(-c2ccccc2O)n1)N1CCCc2ccccc21`: 24.2%.
Turning to `Cc1cc(NC(=O)C2CC(=O)N(c3cccc(C)c3C)C2)no1` (stereo not drawn), the “hERG current change (%, negative = inhibition) at 10uM” value is reported as 18.8%.
As for `Cc1ccc(-n2ncc(C(=O)Nc3cc(Cl)ccc3C)c2C2CCNCC2)cc1C.Cl`, the “hERG current change (%, negative = inhibition) at 10uM” value is listed as -35.1%.
Next, `COc1ccc2[nH]cc(CCNC(=O)Nc3ccccc3)c2c1`: 18.1%; `COc1ccc(NS(=O)(=O)c2ccc(OC)c(OC)c2)cc1OC`: 13.3%.
Next, `CCOc1ccccc1N1CCN(C(=O)c2ccc(S(=O)(=O)Nc3ccccc3)cc2)CC1`: 5.18%.
On to `CCOC(=O)c1[nH]c2c(c1C)C(=O)CC(c1ccco1)C2` (stereo not drawn), for which the “hERG current change (%, negative = inhibition) at 10uM” value is 7.57%.
Next, `O=C(N/N=C/c1cccnc1)c1ccc(NC(=O)c2ccc(F)cc2)cc1`: 8.2%.
The same measure for `COc1ccc(CCN2C(=O)CC(NNC(=O)c3cccc(O)c3)C2=O)cc1` (stereo not drawn): 10.6%; for `C=CCn1c(SCC(=O)NC(=O)c2cccc([N+](=O)[O-])c2)nnc1-c1ccccc1F`: -15.5%; for `Cc1nn(-c2ccccc2)c2c1C1(C(=O)N(C(C)C)c3ccccc31)C(C#N)=C(N)O2` (stereo not drawn): -1.88%.
The same measure for `CCOc1ccc(C(=O)NC(=S)Nc2cccc(S(=O)(=O)NC3=NCCC3)c2)cc1`: -0.298%; for `CCOC(=O)c1c(C)[nH]c(C(=O)OCc2c(C)noc2C)c1C`: 8.68%.
For `Cc1nn(CCCC(=O)NCCc2ccccc2)c(C)c1[N+](=O)[O-]`, the “hERG current change (%, negative = inhibition) at 10uM” value is -18.7%.
The same measure for `Cc1ccc(C)c(OCC(=O)Nc2cc(NC(=O)COc3cc(C)ccc3C)cc(C(=O)O)c2)c1`: 15.7%; for `CCN(CC(=O)Nc1ccc(OC)cc1)CC(=O)Nc1sc2c(c1C(=O)OC)CCCC2`: 3.39%; for `CC(C)C(NC(=O)c1ccccc1)C(=O)OCC(=O)N1CCCC1` (stereo not drawn): -2.42%.
